Reference: the supplement of paper PMC11417369
Some of the results follow.

System: PfAP2-HC AP2 domain (GST-tagged)
Assay: gcPBM binding intensity (ln(normalized median fluorescence intensity)); higher = stronger DNA binding
Outline: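 An Agilent 4 × 180k array carrying primer-extended double-stranded 36-bp intergenic genomic probes and negative controls received GST-tagged P. falciparum DNA-binding domains expressed in E. coli, about 25 μg on average, for 1 h. The binding buffer contained 1× PBS, 1% milk, 0.2 mg/ml BSA, 0.5% salmon testes DNA and 0.03% Triton X-100. Binding intensity is the top Masliner-normalised natural-log median intensity across replicate spots of either probe orientation, read after Alexa488 anti-GST antibody staining and a 488 nm scan.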

Sequence	gcPBM binding intensity (ln)
ATATAACATAATGGATGTACATGTATAAATATAAAA [XGTACX_site8228]	10
ATATATATGGTCATTTGTACATATCGTGAGAGCTGC [XGTACX_site4117]	9.6
TATATTATAAATTAATGTACGTAATTTTTTTTTTTT [XGTACX_site2500]	9.5
ATAATAATATTATTTTGTACATATGTGCTTATTTAT [XGTACX_site5540]	9.85
TTTTGTCAACATTTTTATATTAGGTCTTGAACGATT [GTGCAC_negctrl_site72]	9.38
GTATAATTTAAAAAGTGTACATAAAGTTTTTATTAA [XGTACX_site1090]	9.44
AGTAATAAGTAATTTACACACATATTATAGCATCAC [CACACA_site6971]	10.3
TTATTACCATATTTTGTACACACATCTTTATCTCAA [CACACA_site9054]	10
CTTGGGCGTCATAATGAACACACAATTATATTATGA [CACACA_site9297]	9.51
AAAATAATAAATAACGCATGCGTGTGCATTTTATTC [TGCATGCA_site898]	10.2
ATATATACAAATCCTTTTTTCCAAGATGGAAAAAGA [CACACA_negctrl_site382]	9.42
ATTATATAATCTATATGTACATATATATATATATAT [XGTACX_site4970]	9.97
TATATATAAGCGCATGCACACGCAAAGGTATATAAA [CACACA_site8107]	10.1
CAAAAGAAGGTAAACACACACACACGCATACAAAAA [CACACA_site7724]	10.4
CAAAACCTTATATGTACACACATATACATCACCCTT [CACACA_site3170]	10.3
ATAGAATAAAACTATACACACCTATATTTAAACATA [CACACA_site5106]	9.91
ATTTCTCTATCGTAATGTACATAAAAAATGAAAAAA [XGTACX_site1201]	9.44
TGTTTATTTTTAAAAAGTACATATTTAAAAAACTTC [XGTACX_site271]	9.24
TTTTCTAAATAAATAGTGCATTTATTATATATACAT [GTGCAC_site9766]	9.7
TATTGTTACTTTATATGTACTAATTAAACATATACA [XGTACX_site6363]	9.74
AAAAATACCTTATATATACACACTATGTTTTTCTTT [CACACA_site1192]	10.1
AAATATTAGTAACACAGACACACAAAAAAAAAAAAA [CACACA_site2175]	9.84

Sequence	gcPBM binding intensity (ln)
AAAAAAAAAAAAAAAAGTACACAAATTTTAAAAATT [XGTACX_site3006]	9.51
TATCTCTTCATATTGTGTACATATTTTTATTTATTG [XGTACX_site4038]	9.89
AATTACTACATAAATACATGCATAATTATATATATA [TGCATGCA_site783]	9.59
AACACTTCTTATTTATGTACTTAATTCCCAACGGAA [XGTACX_site4818]	9.48
ATAAAATATAAAAATTGTACGATAATAATAGTAGGA [XGTACX_site8951]	9.88
AAATGAATAAATAAGACACACACGAAAATAAGTAAA [CACACA_site71]	10.4
TGATCAGATAGACACACACACAAAAAAAAAAAAAAA [CACACA_site7805]	10.1
TTATAAAATTACTTGGTGCATTAGAATATTTCAATA	9.35
AAATATATATATATATATATATATATATATATATAT [CACACA_negctrl_site677]	9.47
TTTTCATTCAATTATATTTATATATATATATATATA [GTGCAC_negctrl_site538]	9.6
TACATGTATAAATAAGCACACATGTGGATATGTACA [CACACA_site93]	10
CAAAATATTTTTATAACACACATATATATAATGTGC [CACACA_site4767]	9.7
ACTTATATATTATGTTGTCCGTCCATTCTCTTTATC [XGTACX_site3769]	9.95
AAAATTTAAAGCATGACACACAATTATATTATGTGC [CACACA_site3435]	9.76
TTGTGAAATAAAATTTGTACACACATATATATATAT [XGTACX_site1078]	9.96
TTTTTTTTGGAATTCACACAAATATAACATGGGTAT [CACACA_site5185]	9.56
TTCTTTTCTTTAGTAGAATGTAAAAAATATAATCTT [XGTACX_negctrl_site290]	9.41
TACACAAGGGGAAAAATATATATATATATATATATA [TGCATGCA_negctrl_site217]	9.47
TAAAAAATTTTATATTCACACACATATATATATATA [CACACA_site8109]	9.89
TAAAAGTATATATATACACACATAAATATATATGTA [CACACA_site663]	9.84
TTTTATAAGGTGAAAAGTACATATAACTTATTTTAC [XGTACX_site5572]	9.54
TTAAATGATGTAAACACACACATATACATTATTATA [CACACA_site3162]	10

Sequence	gcPBM binding intensity (ln)
TATTGTCTATAATAAACACACAATATTAAAAATATA [CACACA_site6624]	9.57
ATCTTTCCTATTTGTAGTACAAAAAAAAAAAAAAAA [XGTACX_site5485]	9.15
AAAAAAAAAAAAAAAACACACATACATACATACATA [CACACA_site6125]	10.3
TTTTTTTTTTTTTTTGCACACACCATATTTATAGAA [CACACA_site3310]	10.2
AGAAAAGTGATATATACACACTTATATTTATTTATA [CACACA_site7350]	9.66
TTATTTTATTTTTTTGTGCACATATATATTTATAAA [GTGCAC_site9615]	9.72
ACGTGTGATTATAATTGTACTTTAATGTAAGAATGA [XGTACX_site1109]	9.85
ATATATATATATATATGTACTTATAATAATATTCAA [XGTACX_site2593]	9.79
ATTTATATATAAATGTGTACATATATATATATAAAC [XGTACX_site7592]	9.72
ATTGTAAGTAAACACACACACATATATCTGTATTTA [CACACA_site4542]	10.5
TACCATGTTCAAATTACACACATATAATGCAATATA [CACACA_site7034]	9.77
CTGAAATTAACAAAAGTGCATAAAAATAAAAAATAT [GTGCAC_site9652]	9.68
TCACATTTTGGACACGTGCACATATATTTGATACAT	9.82
AAAATTAATTATTACAAAAATGAAAAGACATATTTT [GTGCAC_negctrl_site735]	9.54
TTTTTTTACAACATTACACACAAATATTCTGGGTTA [CACACA_site3755]	9.75
AATATTATATTAAAATGTACAAAAATGAATTACTTT [XGTACX_site1473]	9.62
CAATGCAAGGCTTAAAAAAATGGGCATATTATATAT [GTGCAC_negctrl_site304]	9.47
AAAAAGGAAATTTACACACACATATAATATACATTA [CACACA_site3296]	10.1
ATTTACCAGACCATATGTACATACATAAAACACACA [XGTACX_site3788]	10.3
GGAATTGAAAAATCAGCACACACACTAATACATACA [CACACA_site9059]	10.3
AATAATTGTTAAAGGTGTACAATACCTACATAAGAA [XGTACX_site4215]	9.87
AAATGGCAATAATGGACACACAAATGTTGTTATATA [CACACA_site2819]	9.84

Sequence	gcPBM binding intensity (ln)
TCATATATCCTTATCACACATATAATAAATTCCCTT [CACACA_site4457]	9.65
AATATTTCTCATTTTGTGCACTGAAAAATGTAATAT	9.61
TTCTTTGCTTTTCAAACACACAAAAGTTATTATAGT [CACACA_site6390]	9.8
GTTCTACAAGCCACTGCATGCTGATATAGAATAAAT [TGCATGCA_site138]	9.52
ATATGATTATTATTATATAAATTATAAAGTCTAATA [GTGCAC_negctrl_site586]	9.32
TATATTAAACTTTGCACACATAATTTAACTACAAAG [CACACA_site3441]	9.74
AATCATTTATTGATGGTGCAATATACCATCTAATGA [GTGCAC_site9440]	9.41
ATATATATATATATATGTACTTAAAAAATATATACA [XGTACX_site8952]	9.6
AAAAAAAAAAAAAAAAAAAAAAAAAAAATACGAAAG [GTGCAC_negctrl_site729]	9.46
CTTTTTAATTAATACACACACACACGGATATAAATA [CACACA_site7145]	10.4
TATTTTTTTTGTGTGTGTCCTCATGTAATACTGCAA [XGTACX_site1380]	10.2
CATAATACATATAACACACACAATTATACATAAAAT [CACACA_site3233]	10.8
AAAAAAAAAAAACACACACACACACCCAAATATATA [CACACA_site150]	10.6
TAAAAATGGAAACACACACACATAAATATATTTTAT [CACACA_site2513]	10.4
ATTTCTATAAAAATAATCTACATTTTTTTTTTTTTT [CACACA_negctrl_site917]	9.23
TATATACATATATATATATGTATAGATAGATACATT [CACACA_negctrl_site1511]	9.63
TAACCACAATTTTAATGTACATATATATTTATATAT [XGTACX_site8968]	9.76
TTTTGAAAAAATTTTTATAAAAGAATAAAATTATTA [XGTACX_negctrl_site570]	9.23
AATATTTTACAATACACATGCAAATAATATTCTAAA [TGCATGCA_site618]	9.64
ATATTATTTATGTATGCATGCGGCGAAATGGGCTTG [TGCATGCA_site28]	9.62
AATGGGTTACACATATGTACATAAAATATAAAAAAT [XGTACX_site3440]	9.81
TCTCATTTTCCCTAAAAAAAAAAATAAATAAAAATA [TGCATGCA_negctrl_site580]	9.07
